Test results: publication PMC6919601, “Identification of Plasmodium dipeptidyl aminopeptidase allosteric inhibitors by high throughput screening” (PLoS ONE, 2019)
Among all 110,000 compounds or so, about 230 (0.21%) showed an effect of 50% or more. The list shows a part of the results.

target: DPAP1 (Plasmodium falciparum, UniProt Q8IIJ9); experiment: primary screen, percent inhibition; read by cleavage of a fluorogenic dipeptide substrate; higher = more effect of the substance; parameters: species or system P. falciparum D10 trophozoite lysates; single well
Sequence (Q8IIJ9 whole entry, looked up): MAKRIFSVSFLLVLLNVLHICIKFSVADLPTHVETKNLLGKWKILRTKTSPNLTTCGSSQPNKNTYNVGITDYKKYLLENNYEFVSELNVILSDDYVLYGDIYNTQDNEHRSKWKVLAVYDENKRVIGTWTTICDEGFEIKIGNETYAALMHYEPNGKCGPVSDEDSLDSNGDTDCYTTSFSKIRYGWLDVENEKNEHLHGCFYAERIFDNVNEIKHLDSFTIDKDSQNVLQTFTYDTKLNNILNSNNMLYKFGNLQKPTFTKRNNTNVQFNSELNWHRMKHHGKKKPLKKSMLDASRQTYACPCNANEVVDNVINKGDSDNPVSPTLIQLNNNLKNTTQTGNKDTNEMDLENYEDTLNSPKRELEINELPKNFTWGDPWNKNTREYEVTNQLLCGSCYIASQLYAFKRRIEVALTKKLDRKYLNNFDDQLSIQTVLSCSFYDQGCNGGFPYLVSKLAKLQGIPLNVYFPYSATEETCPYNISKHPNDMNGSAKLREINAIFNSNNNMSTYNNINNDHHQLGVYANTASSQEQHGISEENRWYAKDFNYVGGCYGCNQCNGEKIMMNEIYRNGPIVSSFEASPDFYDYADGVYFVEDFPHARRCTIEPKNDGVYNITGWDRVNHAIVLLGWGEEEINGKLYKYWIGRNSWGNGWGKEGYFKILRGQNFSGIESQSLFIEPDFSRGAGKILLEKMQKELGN
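Also: 30 min substrate incubation versus DMSO and 10 µM JCP410 controls.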

Compound | % Inhibition @ 10 uM [%]
Cc1c(C(=O)NCc2ccc3c(c2)OCO3)sc2nc3n(c(=O)c12)CCCCC3 | -3.49
O=C(NCc1ccc2c(c1)OCO2)C1CCCN(c2nnc(-n3cccc3)s2)C1 (centres unmarked) | 4.33
O=C(Nc1ccc(I)cc1)c1ccc(Br)o1 | -3.82
Cc1ccc2oc(=O)c3cc(C(=O)N4CCN(C(=O)c5ccco5)CC4)sc3c2c1 | -2.45
CCOCC(=O)Nc1cccc2cccnc12 | -0.545
CCCN(CCC)C(=O)Cn1c(=O)n(CC(=O)NCCc2ccccc2)c(=O)c2sccc21 | -0.591
C=CCn1c(N)c(S(=O)(=O)c2ccccc2)c2nc3ccccc3nc21 | 4.54
Cc1ccc(NC(=O)CSc2nc(C)cc(C)c2C#N)c(Br)c1 | -2.64
Cc1ccc(NC(=O)CSc2ncn(-c3ccccc3)n2)cc1 | 2.01
CC(CNC(=O)c1cc2sccc2n1C)c1ccccc1 (centres unmarked) | -8.58
CCc1ccc(-n2nc(C)c3c(C(=O)NCc4ccccc4)cc(C)nc32)cc1 | -3.94
CC(=O)Nc1cc(C(F)(F)F)ccc1OCCOc1ccccc1 | -2.09
O=C(CCc1nc2ncccc2c(=O)n1Cc1ccc(F)cc1)N1CCC(Cc2ccccc2)CC1 | 0.953
COc1ccc(CNC(=O)c2ccccc2-c2ccccc2)cc1 | 2.6
Cc1cc(Cl)ccc1OCC(=O)N1CCCC1 | -0.132
Cc1ccc(OC(C)C(=O)Nc2nc3ccccc3s2)cc1 (centres unmarked) | -8.28
Cc1ccc(NC(=O)CNS(=O)(=O)c2ccccc2)cc1C | -4.39
CCCOc1ccc(-c2nc(-c3ccc(Br)cc3)no2)cc1 | -3.18
CSc1ccc(C2C3=C(CC(C)(C)CC3=O)OC3=C2C(=O)CC(C)(C)C3)cc1 | -2.07
Cc1nc(Oc2ccc3c(c2)OCO3)c2c3c(sc2n1)CCCC3 | -1.07
CCOC(=O)c1nnn(-c2nonc2-c2ccccc2)c1CSCCO | 1.08
CCCC(=O)Nc1ccc(N2CCN(S(C)(=O)=O)CC2)cc1 | 4.44
Cc1ccc(N2C(=O)C3C(C2=O)C2(Br)c4ccccc4C3(Br)c3ccccc32)cc1 (centres unmarked) | 1.64
CC(C)OCCCNC(=O)c1cc(-c2ccc3c(c2)OCO3)nc2ccccc12 | 1.39
Cc1[nH]c2ccccc2c1-c1csc(-c2ccc(O)cc2)n1 | -0.469

Compound | % Inhibition @ 10 uM [%]
CCOC(=O)C1=C(N)Oc2ccc3ccccc3c2C1c1ccc(Cl)cc1 (centres unmarked) | -5.96
O=P(c1ccccc1)(c1ccccc1)N1CCN(P(=O)(c2ccccc2)c2ccccc2)CC1 | -3.98
CCCCCC1C(=O)CC(c2ccccc2)N(C)C1c1ccccc1 (centres unmarked) | -3.35
O=C1N=C(N2CCCC2)S/C1=C\c1ccccc1Cl | -6.67
NS(=O)(=O)c1ccc(N2N=C(c3ccccc3)CC2c2ccccc2)cc1 (centres unmarked) | -0.969
CC1CCCCC1NC(=O)CN1CCN(Cc2ccc(Cl)cc2)C1=O (centres unmarked) | -2.99
O=C(CCS(=O)(=O)c1ccc(Br)s1)NCc1ccccc1Cl | 1.37
Cc1cc(N2C(=O)C3CCC(c4ccccc4)CC3C2=O)no1 (centres unmarked) | 2.64
C=CC[C@@H]1Cc2ccccc2[C@@H](CCCC)N1 | -2.07
Cc1ccccc1CSCCNC(=O)CN1C(=O)c2ccccc2S1(=O)=O | -5.1
CS(=O)(=O)C1=NN2C(=N)/C(=C\c3cn(Cc4ccccc4F)c4ccccc34)C(=O)N=C2S1 | -5.27
COc1ccc(Br)cc1CNCCSc1nnnn1C | 0.00706
O=C(NC(c1ccccc1Cl)c1ccc2cccnc2c1O)c1ccccc1 (centres unmarked) | 13.3
O=C(O)c1nnn(Cc2cccc(C(F)(F)F)c2)c1C(=O)O | -2.41
O=C(Nc1cccc(NC(=O)c2ccco2)c1)c1cnccn1 | 2.42
COc1ccccc1N1C(=O)CC(N2CCN(c3cccc(C(F)(F)F)c3)CC2)C1=O (centres unmarked) | 2.91
O=C(O)c1ccc(CNS(=O)(=O)c2cccc3nsnc23)cc1 | 2.18
CC1CC(C)CN(c2oc(/C=C/c3ccc(F)cc3)nc2C#N)C1 (centres unmarked) | 0.895
COc1c2c(nc3occc13)C(CCC(C)(C)O)(OC)C(O)CC2 (centres unmarked) | 3.9
c1ccc(-c2cc3c(ccc4nonc43)[nH]2)cc1 | -0.294
Nc1nc(NCc2ccccc2F)nn1-c1ccccc1 | -9.33
COc1ccc(C(=O)c2coc3ccc(O)cc23)cc1 | -2.75
CC1(C)CC(=O)C2=C(C1)OC(N)=C(C#N)C21C(=O)Nc2ccc(Br)cc21 (centres unmarked) | 3.01
CO/C(O)=C1\C(C)=NC2=C(C(=O)CC(C)(C)C2)C1c1ccccc1Cl (centres unmarked) | -4.01
O=C(CCn1c(=O)c2cccn2c2cccnc21)NCCC1=CCCCC1 | -2.15
